± gives the standard deviation of the averaged measurements. Restriction of a single-cycle SIVsab GFP reporter by TRIM5α v1-loop variants in CRFK cells. Human variants: read share among cells still uninfected after two challenges over input, higher = gained restriction. Rhesus variants: share among infected cells over input, higher = lost restriction. Reporter dose not given per row. No active / inactive call per row; the paper calls a change when both replicates lie above its controls (mean + 2 SD of stop or wild-type variants, or the top frameshift score). Residues outside the varied loop are taken from Swiss-Prot. The paper reads the human single-substitution scores as noise; they and the rhesus combinations repeat poorly (rank correlation 0.3 to 0.4), indel scores repeat only for the top variants, rhesus substitutions well (0.9).

The subject of this series is SIVsab (simian immunodeficiency virus of sabaeus monkeys), single-cycle GFP reporter, in CRFK cells. Briefly: enrichment among uninfected cells over input (fold); higher = stronger restriction. As to conditions: library: insertions and deletions. As for the experimental part: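 Pools of CRFK cells expressing variants of the TRIM5α v1 loop were challenged with the single-cycle reporter, sorted by GFP and sequenced; mean of two replicates.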
Sequence “MASGILVNVKEEVTCPICLELLTQPLSLDCGHSFCQACLTANHKKSMLDKGESSCPVCRISYQPENIRPNRHVANIVEKLREVKLSPEGQKVDHCARHGEKLLLFCQEDGKVICWLCERSQEHRGHHTFLTEEVAREYQVKLQAALEMLRQKQQEAEELEADIREEKASWKTQIQYDKTNVLADFEQLRDILDWEESNELQNLEKEEEDILKSLTNSETEMVQQTQSLRELISDLEHRLQGSVMELLQGVDGVIKRTENVTLKKPETFPKNQRRVFRAPDLKGMLEVFRELTDVRRYWVDVTVAPNNISCAVISEDKRQVSSPKPQIIYGARGTRYQTILGSQSITSGKHYWEVDVSKKTAWILGVCAGFQPDAMCNIEKNENYQPKYGYWVIGLEEGVKCSAFQDSSFHTPSVPFIVPLSVIICPDRVGVFLDYEACTVSFFNITNHGFLIYKFSHCSFSQPVFPYLNPRKCGVPMTLCSPSS [human TRIM5α, 9-codon deletion at 339]” gave an enrichment of 3.23 ± 2.9.

On to “MASGILVNVKEEVTCPICLELLTQPLSLDCGHSFCQACLTANHKKSMLDKGESSCPVCRISYQPENIRPNRHVANIVEKLREVKLSPEGQKVDHCARHGEKLLLFCQEDGKVICWLCERSQEHRGHHTFLTEEVAREYQVKLQAALEMLRQKQQEAEELEADIREEKASWKTQIQYDKTNVLADFEQLRDILDWEESNELQNLEKEEEDILKSLTNSETEMVQQTQSLRELISDLEHRLQGSVMELLQGVDGVIKRTENVTLKKPETFPKNQRRVFRAPDLKGMLEVFRELTDVRRYWVDVTVAPNNISCAVISEDKRQVSSPKPQIIYGARGTRYQTNFNYCTGILGSQSITSGKHYWEVDVSKKTAWILGVCAGFQPDAMCNIEKNENYQPKYGYWVIGLEEGVKCSAFQDSSFHTPSVPFIVPLSVIICPDRVGVFLDYEACTVSFFNITNHGFLIYKFSHCSFSQPVFPYLNPRKCGVPMTLCSPSS [human TRIM5α, 2-codon deletion at 339]”, for which the enrichment amounted to 0.932 ± 0.86.

“MASGILVNVKEEVTCPICLELLTQPLSLDCGHSFCQACLTANHKKSMLDKGESSCPVCRISYQPENIRPNRHVANIVEKLREVKLSPEGQKVDHCARHGEKLLLFCQEDGKVICWLCERSQEHRGHHTFLTEEVAREYQVKLQAALEMLRQKQQEAEELEADIREEKASWKTQIQYDKTNVLADFEQLRDILDWEESNELQNLEKEEEDILKSLTNSETEMVQQTQSLRELISDLEHRLQGSVMELLQGVDGVIKRTENVTLKKPETFPKNQRRVFRAPDLKGMLEVFRELTDVRRYWVDVTVAPNNISCAVISEDKRQVSSPKPQIIYGARGTRYQTNYCTGILGSQSITSGKHYWEVDVSKKTAWILGVCAGFQPDAMCNIEKNENYQPKYGYWVIGLEEGVKCSAFQDSSFHTPSVPFIVPLSVIICPDRVGVFLDYEACTVSFFNITNHGFLIYKFSHCSFSQPVFPYLNPRKCGVPMTLCSPSS [human TRIM5α, 4-codon deletion at 339]” showed an enrichment of 1.88 ± 0.07.

For the sequence “MASGILVNVKEEVTCPICLELLTQPLSLDCGHSFCQACLTANHKKSMLDKGESSCPVCRISYQPENIRPNRHVANIVEKLREVKLSPEGQKVDHCARHGEKLLLFCQEDGKVICWLCERSQEHRGHHTFLTEEVAREYQVKLQAALEMLRQKQQEAEELEADIREEKASWKTQIQYDKTNVLADFEQLRDILDWEESNELQNLEKEEEDILKSLTNSETEMVQQTQSLRELISDLEHRLQGSVMELLQGVDGVIKRTENVTLKKPETFPKNQRRVFRAPDLKGMLEVFRELTDVRRYWVDVTVAPNNISCAVISEDKRQVSSPKPQIIYGARGTRYQTQTFVNFNYCTGILGSQSITSGKHYWEVDVSKKTAWILGVCAGFQPDAMCNIEKNENYQPKYGYWVIGLEEGVKCSAFQDSSFHTPSVPFIVPLSVIICPDRVGVFLDYEACTVSFFNITNHGFLIYKFSHCSFSQPVFPYLNPRKCGVPMTLCSPSS [human TRIM5α, 2-codon duplication at 337]”, the enrichment was found to be 0.403 ± 0.08.

“MASGILVNVKEEVTCPICLELLTQPLSLDCGHSFCQACLTANHKKSMLDKGESSCPVCRISYQPENIRPNRHVANIVEKLREVKLSPEGQKVDHCARHGEKLLLFCQEDGKVICWLCERSQEHRGHHTFLTEEVAREYQVKLQAALEMLRQKQQEAEELEADIREEKASWKTQIQYDKTNVLADFEQLRDILDWEESNELQNLEKEEEDILKSLTNSETEMVQQTQSLRELISDLEHRLQGSVMELLQGVDGVIKRTENVTLKKPETFPKNQRRVFRAPDLKGMLEVFRELTDVRRYWVDVTVAPNNISCAVISEDKRQVSSPKPQIIYGARGTRYQTRYQTFVNFNYCTGILGSQSITSGKHYWEVDVSKKTAWILGVCAGFQPDAMCNIEKNENYQPKYGYWVIGLEEGVKCSAFQDSSFHTPSVPFIVPLSVIICPDRVGVFLDYEACTVSFFNITNHGFLIYKFSHCSFSQPVFPYLNPRKCGVPMTLCSPSS [human TRIM5α, 4-codon duplication at 334]” displayed an enrichment of 0.297 ± 0.41.

Sequence “MASGILVNVKEEVTCPICLELLTQPLSLDCGHSFCQACLTANHKKSMLDKGESSCPVCRISYQPENIRPNRHVANIVEKLREVKLSPEGQKVDHCARHGEKLLLFCQEDGKVICWLCERSQEHRGHHTFLTEEVAREYQVKLQAALEMLRQKQQEAEELEADIREEKASWKTQIQYDKTNVLADFEQLRDILDWEESNELQNLEKEEEDILKSLTNSETEMVQQTQSLRELISDLEHRLQGSVMELLQGVDGVIKRTENVTLKKPETFPKNQRRVFRAPDLKGMLEVFRELTDVRRYWVDVTVAPNNISCAVISEDKRQVSSPKPQIIYGARGTRYQTRYQTFVNFNYCTGILGSQSITSGKHYWEVDVSKKTAWILGVCAGFQPDAMCNIEKNENYQPKYGYWVIGLEEGVKCSAFQDSSFHTPSVPFIVPLSVIICPDRVGVFLDYEACTVSFFNITNHGFLIYKFSHCSFSQPVFPYLNPRKCGVPMTLCSPSS [human TRIM5α, 4-codon duplication at 335]” had an enrichment of 0.302 ± 0.42.

With “MASGILVNVKEEVTCPICLELLTQPLSLDCGHSFCQACLTANHKKSMLDKGESSCPVCRISYQPENIRPNRHVANIVEKLREVKLSPEGQKVDHCARHGEKLLLFCQEDGKVICWLCERSQEHRGHHTFLTEEVAREYQVKLQAALEMLRQKQQEAEELEADIREEKASWKTQIQYDKTNVLADFEQLRDILDWEESNELQNLEKEEEDILKSLTNSETEMVQQTQSLRELISDLEHRLQGSVMELLQGVDGVIKRTENVTLKKPETFPKNQRRVFRAPDLKGMLEVFRELTDVRRYWVDVTVAPNNISCAVISEDKRQVSSPKPQIIYGARGTRYQTTFVNFNYCTGILGSQSITSGKHYWEVDVSKKTAWILGVCAGFQPDAMCNIEKNENYQPKYGYWVIGLEEGVKCSAFQDSSFHTPSVPFIVPLSVIICPDRVGVFLDYEACTVSFFNITNHGFLIYKFSHCSFSQPVFPYLNPRKCGVPMTLCSPSS [human TRIM5α, 1-codon duplication at 338]”, the enrichment came to 0.664 ± 0.34.

On to “MASGILVNVKEEVTCPICLELLTQPLSLDCGHSFCQACLTANHKKSMLDKGESSCPVCRISYQPENIRPNRHVANIVEKLREVKLSPEGQKVDHCARHGEKLLLFCQEDGKVICWLCERSQEHRGHHTFLTEEVAREYQVKLQAALEMLRQKQQEAEELEADIREEKASWKTQIQYDKTNVLADFEQLRDILDWEESNELQNLEKEEEDILKSLTNSETEMVQQTQSLRELISDLEHRLQGSVMELLQGVDGVIKRTENVTLKKPETFPKNQRRVFRAPDLKGMLEVFRELTDVRRYWVDVTVAPNNISCAVISEDKRQVSSPKPQIIYGARGTRYQTTGILGSQSITSGKHYWEVDVSKKTAWILGVCAGFQPDAMCNIEKNENYQPKYGYWVIGLEEGVKCSAFQDSSFHTPSVPFIVPLSVIICPDRVGVFLDYEACTVSFFNITNHGFLIYKFSHCSFSQPVFPYLNPRKCGVPMTLCSPSS [human TRIM5α, 7-codon deletion at 339]”, for which the enrichment came out at 0.955 ± 0.94.

For “MASGILVNVKEEVTCPICLELLTQPLSLDCGHSFCQACLTANHKKSMLDKGESSCPVCRISYQPENIRPNRHVANIVEKLREVKLSPEGQKVDHCARHGEKLLLFCQEDGKVICWLCERSQEHRGHHTFLTEEVAREYQVKLQAALEMLRQKQQEAEELEADIREEKASWKTQIQYDKTNVLADFEQLRDILDWEESNELQNLEKEEEDILKSLTNSETEMVQQTQSLRELISDLEHRLQGSVMELLQGVDGVIKRTENVTLKKPETFPKNQRRVFRAPDLKGMLEVFRELTDVRRYWVDVTVAPNNISCAVISEDKRQVSSPKPQIIYGARGTRYQTTRYQTFVNFNYCTGILGSQSITSGKHYWEVDVSKKTAWILGVCAGFQPDAMCNIEKNENYQPKYGYWVIGLEEGVKCSAFQDSSFHTPSVPFIVPLSVIICPDRVGVFLDYEACTVSFFNITNHGFLIYKFSHCSFSQPVFPYLNPRKCGVPMTLCSPSS [human TRIM5α, 5-codon duplication at 334]”, the enrichment stood at 0.765 ± 0.36.

Regarding “MASGILVNVKEEVTCPICLELLTQPLSLDCGHSFCQACLTANHKKSMLDKGESSCPVCRISYQPENIRPNRHVANIVEKLREVKLSPEGQKVDHCARHGEKLLLFCQEDGKVICWLCERSQEHRGHHTFLTEEVAREYQVKLQAALEMLRQKQQEAEELEADIREEKASWKTQIQYDKTNVLADFEQLRDILDWEESNELQNLEKEEEDILKSLTNSETEMVQQTQSLRELISDLEHRLQGSVMELLQGVDGVIKRTENVTLKKPETFPKNQRRVFRAPDLKGMLEVFRELTDVRRYWVDVTVAPNNISCAVISEDKRQVSSPKPQIIYGARGTRYQTVNFNYCTGILGSQSITSGKHYWEVDVSKKTAWILGVCAGFQPDAMCNIEKNENYQPKYGYWVIGLEEGVKCSAFQDSSFHTPSVPFIVPLSVIICPDRVGVFLDYEACTVSFFNITNHGFLIYKFSHCSFSQPVFPYLNPRKCGVPMTLCSPSS [human TRIM5α, 1-codon deletion at 339]”, the enrichment worked out at 0.525 ± 0.14.

On to “MASGILVNVKEEVTCPICLELLTQPLSLDCGHSFCQACLTANHKKSMLDKGESSCPVCRISYQPENIRPNRHVANIVEKLREVKLSPEGQKVDHCARHGEKLLLFCQEDGKVICWLCERSQEHRGHHTFLTEEVAREYQVKLQAALEMLRQKQQEAEELEADIREEKASWKTQIQYDKTNVLADFEQLRDILDWEESNELQNLEKEEEDILKSLTNSETEMVQQTQSLRELISDLEHRLQGSVMELLQGVDGVIKRTENVTLKKPETFPKNQRRVFRAPDLKGMLEVFRELTDVRRYWVDVTVAPNNISCAVISEDKRQVSSPKPQIIYGARGTRYQTYCTGILGSQSITSGKHYWEVDVSKKTAWILGVCAGFQPDAMCNIEKNENYQPKYGYWVIGLEEGVKCSAFQDSSFHTPSVPFIVPLSVIICPDRVGVFLDYEACTVSFFNITNHGFLIYKFSHCSFSQPVFPYLNPRKCGVPMTLCSPSS [human TRIM5α, 5-codon deletion at 339]”, for which the enrichment amounted to 1.67 ± 0.58.

In turn, “MASGILVNVKEEVTCPICLELLTQPLSLDCGHSFCQACLTANHKKSMLDKGESSCPVCRISYQPENIRPNRHVANIVEKLREVKLSPEGQKVDHCARHGEKLLLFCQEDGKVICWLCERSQEHRGHHTFLTEEVAREYQVKLQAALEMLRQKQQEAEELEADIREEKASWKTQIQYDKTNVLADFEQLRDILDWEESNELQNLEKEEEDILKSLTNSETEMVQQTQSLRELISDLEHRLQGSVMELLQGVDGVIKRTENVTLKKPETFPKNQRRVFRAPDLKGMLEVFRELTDVRRYWVDVTVAPNNISCAVISEDKRQVSSPKPQIIYGARGTRYQTYQTFVNFNYCTGILGSQSITSGKHYWEVDVSKKTAWILGVCAGFQPDAMCNIEKNENYQPKYGYWVIGLEEGVKCSAFQDSSFHTPSVPFIVPLSVIICPDRVGVFLDYEACTVSFFNITNHGFLIYKFSHCSFSQPVFPYLNPRKCGVPMTLCSPSS [human TRIM5α, 3-codon duplication at 336]” displayed an enrichment of 0.24 ± 0.01.

These data come from the supplement of paper PMC12230231.
